Assay results from patent publication US5322854A, “Reveromycin A, method for preparing the same, and antitumor agent and antifungal agent comprising the same” (Rikagaku Kenkyusho, priority 1990, dated 1994).

Assays:
[1] = tested on: mouse epithelial cells stimulated by Epidermal Growth Factor, EGF; test: Inhibition of DNA synthesis in mouse epithelial cells stimulated by EGF (3H-thymidine); conditions: Epithelial cell, 17 h, read-out: inhibitory ratio
Description: Experiments of the Inhibition of DNA Synthesis in Mouse Epithelial Cells Stimulated by Epidermal Growth Factor, EGF
EGF (5 ng/ml) and Reveromycin A were added to a culture of mouse epithelial cells in resting stage, and after 17 hours, ^3 H-labeled thymidine (1 μ Ci/ml) was added to the medium. The radioactivity of the acid insoluble fraction of the cells, which were labeled for 5 hours, was measured by a liquid scintillation counter to determine the amount of DNA synthesis. The ratio of inhibition was calculated by the equation set out below. [formula]

[2] = tested on: Rat Kidney Cell (NRK) transformed with temperature sensitive oncogene, src^ts; test: Effect on spherical (transformed) src^ts-NRK cells at 32° C.; conditions: read-out: inhibitory ratio
Description: Effect on Rat Kidney Cell (NRK) Transformed with Temperature Sensitive Oncogene, src^ts
When src^ts -NRK cells are cultured at 32° C., spherical transformant cells can be grown. On the other hand, when they are cultured at 39° C., the spherical cells will disappear and only flat adhesive cells can be grown. Reveromycin A was added to the cultured cells at 32° C. and the cells were observed microscopically to count the number of spherical cells. The effectiveness was calculated by the equation set out below. [formula]

CCCC[C@@]1(OC(=O)CCC(=O)O)CC[C@]2(CC[C@H](C)[C@@H](C/C=C(C)/C=C/[C@H](O)[C@@H](C)/C=C/C(=O)O)O2)O[C@H]1/C=C/C(C)=C/C(=O)O [Reveromycin A]
inhibition at 0.5 µg/mL [1]: 15% | inhibition at 1.7 µg/mL [1]: 48% | inhibition at 5 µg/mL [1]: 88% | inhibition at 17 µg/mL [1]: 90% | inhibition at 50 µg/mL [1]: 99% | inhibition at 0.5 µg/mL [2]: 45% | inhibition at 1.7 µg/mL [2]: 60% | inhibition at 5 µg/mL [2]: 95% | inhibition at 17 µg/mL [2]: 95% | inhibition at 50 µg/mL [2]: 95%
